The campaign covered roughly 410,000 compounds. About 530 (0.13%) were called active. Inconclusive means that the source gave no clear call. Such entries were picked first, then a sample of the others. The call rests on the fitted dose curve; in most records, active means well fitted inhibition curve with a large enough effect; inconclusive means small, poorly fitted or top-dose-only effect, or another doubt; inactive means no such curve, though single readings can be large or run the other way. Potencies of inconclusive entries are doubtful fits and often do not repeat.
Assay: qHTS of GLP-1 Receptor Inverse Agonists: Cytotox Screen
Settings: HEK293 cAMP-luciferase reporter cells, luminescence, 24 h; series mostly up to 38.3 µM
Method in brief: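 Seeding density was 200 cells/uL; after overnight-length (12 h) culture, 23 nL compounds went on for 24 h at 37 °C. Readout used a luciferase detection reagent, luminescence taken after 12 min at room temperature.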
Potency means the concentration at half of the fitted maximal effect.

Compound	Potency
COc1ccc(/C=C/c2nc(C#N)c(NCCc3ccccc3)o2)cc1OC	inactive
O=C(CCC(=O)NNC(=S)Nc1ccccc1)NCc1ccccc1	inactive
C/C(CC(=O)Nc1ccc(Cl)c(Cl)c1)=N\NC(=O)C(=O)N1CCCCC1	inactive
COc1cccc(-n2c(=O)c3c(C)c(C)sc3n(CC(=O)NCc3ccccc3)c2=O)c1	inactive
COc1ccc(-c2nsc(NC(=O)C(C)Oc3ccc(Cl)c(C)c3)n2)cc1 (configuration not stated)	inconclusive: 25.1 µM [inhibitor, single point]
COc1ccc(OC(=O)CCCN2C(=O)c3ccccc3C2=O)cc1	inconclusive: 22.4 µM [inhibitor, single point]
COC(=O)COc1cc(C)cc2oc(=O)c(CC(=O)OC)c(C)c12	inactive
O=C(c1ccc(COc2ccccc2Br)o1)N1N=C(C(F)F)CC1(O)C(F)F (configuration not stated)	inconclusive: 31.6 µM [inhibitor, single point]
O=S(=O)(c1ccc(OCC(O)CN2CCN(c3ccc(F)cc3)CC2)cc1)N1CCOCC1 (configuration not stated)	inactive
O=C(NC(=S)Nc1ccccc1N1CCCCC1)c1ccccc1	inconclusive: 12.6 µM [inhibitor, single point]
CN=C(c1ccc(C)cc1)n1c(=S)nc(-c2ccc(C)cc2)n(C)c1=S	inconclusive: 28.2 µM [inhibitor, single point]
CS(=O)(=O)c1ncc(Cl)c(C(=O)Nc2ccc(OC(F)F)cc2)n1	inconclusive: 3.98 µM [inhibitor, full curve]
COc1ccc(OC)c(N(CC(=O)NCCSCc2ccco2)S(=O)(=O)c2ccc(OC)c(OC)c2)c1	inconclusive: 28.2 µM [inhibitor, single point]
CC1(c2nnnn2-c2ccc3c(c2)OCCO3)CCC(=O)N1Cc1cccc(C(F)(F)F)c1 (configuration not stated)	inactive
O=c1oc2ccccc2c(Nc2ccc3ccccc3c2)c1[N+](=O)[O-]	inconclusive: 11.2 µM [inhibitor, partial curve, poor fit]
Cc1ccc(Nc2nc(-c3ccccc3)cs2)nc1	inactive
CC(=O)Nc1ccc(NC(=O)c2c([N+](=O)[O-])c(C(C)(C)C)nn2C)cc1	inconclusive: 28.2 µM [inhibitor, single point]
CN(C)CCNC(=O)c1cc2sc3ccccc3c2s1	inconclusive: 31.6 µM [inhibitor, single point]
O=C(NCc1ccccc1)c1nc(S(=O)(=O)Cc2ccccc2)ncc1Cl	inconclusive: 12.6 µM [inhibitor, single point]
CCCCNCCCOc1cccc(Cl)c1Cl	inconclusive: 28.2 µM [inhibitor, single point]
CC(C)(C)c1ccc(C(=O)NC2(C(F)(F)F)C(=O)Nc3c2c(=O)[nH]c(=O)n3-c2ccccc2)cc1 (configuration not stated)	inactive
Cc1sc2ncn(CC(=O)N3CCN(c4ccc(Cl)cc4)CC3)c(=O)c2c1S(=O)(=O)N1CCN(c2ncccn2)CC1	inactive
Cc1cc(C)cc(NC(=S)NCc2ccc3c(c2)OCO3)c1	inconclusive: 31.6 µM [inhibitor, single point]

Compound	Potency
CCCCCCCCCC(=O)N1c2ccccc2NC(=O)C1CC(=O)Nc1ccc(C(=O)O)cc1 (configuration not stated)	inconclusive: 12.6 µM [inhibitor, single point]
CCCCC(=O)NC(=S)Nc1ccccc1N1CCCCC1	inconclusive: 28.2 µM [inhibitor, single point]
C=C1C(=O)O[C@H]2[C@H]1[C@H](OC(=O)/C(C)=C\C)C[C@]1(CO1)[C@@H]1[C@H](OC(C)=O)C=C(C)[C@]21O	inconclusive: 10 µM [inhibitor, partial curve, poor fit]
CC1=Nc2cc(C(=O)NCCc3ccccc3)ccc2Sc2c(C)ccc(C)c21	inconclusive: 1 µM [inhibitor, full curve, poor fit]
COc1ccc(Cl)cc1S(=O)(=O)n1nnc2ccccc21	inactive
CCc1ccc(Nc2n[n+](-c3ccccc3)c(-c3ccc(SC)cc3)s2)cc1	inconclusive: 28.2 µM [inhibitor, single point]
COc1ccc2c(C)cc(=S)[nH]c2c1	inconclusive: 28.2 µM [inhibitor, single point]
Cc1cc2c(NCCc3ccccc3)ncnc2s1	inactive
COc1ccc(C(O)(C(C)C)C(CN2CCOCC2)c2ccc(Cl)cc2)cc1 (configuration not stated)	inconclusive: 28.2 µM [inhibitor, single point]
CCOC(=O)c1cc2c(=O)n3ccccc3nc2n(Cc2ccco2)c1=NC(=O)c1c(F)cccc1Cl	inactive
Cn1c(/C=C/c2cccc([N+](=O)[O-])c2)c([N+](=O)[O-])c(=O)n(C)c1=O	inconclusive: 3.55 µM [inhibitor, single point]
CC(C)(C)c1ccc(C(=O)NNc2cc(N3CCCCC3)nc(N3CCCCC3)n2)cc1	inconclusive: 14.1 µM [inhibitor, single point]
O=C(CN1C(=O)NC2(CCc3ccccc32)C1=O)c1ccc(Cl)cc1 (configuration not stated)	inactive
O=C(Nc1ccc(C(F)(F)F)cc1)N1CCN(c2ccnc3cc(Cl)ccc23)CC1	inconclusive: 12.6 µM [inhibitor, single point]
COc1cc(/C=C/CN2CCC(C(=O)NC(c3ccc(F)cc3)c3ccc4ccccc4n3)CC2)ccc1OC(C)=O (configuration not stated)	inconclusive: 28.2 µM [inhibitor, single point]
CC1(CCc2ccccc2)NC(=O)N(CC(=O)Nc2ccc(OC(F)F)cc2)C1=O (configuration not stated)	inconclusive: 31.6 µM [inhibitor, single point]
Cc1cc(C(=O)N2CCN(c3cccc(Cl)c3)CC2)c(C)o1	inconclusive: 4.47 µM [inhibitor, partial curve, poor fit]
COc1ccc(NC(=O)N(CCc2ccccc2)Cc2cc3c(C)cc(C)cc3[nH]c2=O)cc1	inconclusive: 6.31 µM [inhibitor, full curve, poor fit]
CC1Cc2cc(S(=O)(=O)NCc3ccc(N(C)C)cc3)ccc2N1C(=O)C1CCC1 (configuration not stated)	inactive
C/C(=N\NC(=O)Cc1ccc(Cl)cc1)c1ccccc1O	inconclusive: 11.2 µM [inhibitor, partial curve, poor fit]
c1ccc2c(c1)OCCOCCOCCOCCOc1ccccc1OCCOCCOCCO2	inconclusive: 31.6 µM [inhibitor, single point]
NCC(c1ccc(Cl)cc1Cl)c1c[nH]c2ccccc12 (configuration not stated)	inconclusive: 10 µM [inhibitor, partial curve, poor fit]
O=C1C2=C(Nc3ccccc3SC2c2ccco2)c2ccccc21 (configuration not stated)	inconclusive: 12.6 µM [inhibitor, single point]

Compound	Potency
CCCCC1CCC(C(=O)N2CC(=O)Nc3ccc(Cl)cc3C2c2ccc(F)cc2)CC1 (configuration not stated)	inactive
COc1cccc(/C=N/NC(=O)c2cc3cc([N+](=O)[O-])ccc3s2)c1O	inconclusive: 1 µM [inhibitor, full curve, poor fit]
O=C1C(=C(O)c2ccccc2)C(=O)c2ccccc21	inconclusive: 28.2 µM [inhibitor, single point]
COc1ccc(NC(=S)Nc2cccc(Cl)c2Cl)cc1OC	inconclusive: 0.501 µM [inhibitor, full curve, poor fit]
CCOC(=O)c1cccc2c1N[C@@H](c1ccc(F)cc1)[C@H]1CC=C[C@@H]21	inactive
COc1ccc(Oc2c(Cl)cnn(-c3ccccc3)c2=O)cc1	inconclusive: 12.6 µM [inhibitor, single point]
Cc1cc(OCC(=O)NC2CCN(Cc3ccccc3)CC2)c2c(C)c(C)c(=O)oc2c1	inactive
c1ccc2c(c1)CC(N1CCCCC1)c1ccccc1N2 (configuration not stated)	inactive
c1ccc2c(Nc3ccc4c(c3)OCCO4)c3c(nc2c1)CCCC3	inconclusive: 15.8 µM [inhibitor, partial curve, poor fit]
CCOC(=O)c1ccc2c(c1)nc(COc1ccc(OC)cc1)n2CC	inconclusive: 10 µM [inhibitor, single point]
O=C1C(F)=CC(COC(c2ccccc2)(c2ccccc2)c2ccccc2)OC1n1cc(F)c(=O)[nH]c1=O (configuration not stated)	inconclusive: 5.62 µM [inhibitor, partial curve, poor fit]
O=C(c1ccco1)N1CCN(C(c2ccccn2)c2nnnn2C2CCCC2)CC1 (configuration not stated)	inconclusive: 10 µM [inhibitor, single point]
Cc1nc2scc(C)n2c(=O)c1S(=O)(=O)Nc1cccc(C(F)(F)F)c1	inactive
Cc1nonc1OC(C)CNc1ccc([N+](=O)[O-])cc1 (configuration not stated)	inconclusive: 10 µM [inhibitor, partial curve, poor fit]
CCOC(=O)c1[nH]c2cc3c(cc2c1NC(=O)CN1CCc2ccccc2C1)OCO3	inactive
O=S(=O)(c1cccc(C(F)(F)F)c1)N1CCC(c2cc(-c3cccc4ccccc34)n[nH]2)CC1	inactive
O=C(NC(=S)N1CCc2ccccc21)c1ccccc1Cl	inconclusive: 2.51 µM [inhibitor, full curve]
CCCCC(=O)Nc1ccccc1CC	inactive
Cc1cc(C)n(-c2nc(NCCCN(C)C)c3c4c(sc3n2)COC(C)(C)C4)n1	inconclusive: 28.2 µM [inhibitor, single point]
NC(=O)c1nn(CC(=O)Nc2cccc(S(=O)(=O)N3CCCCCC3)c2)c(=O)c2ccccc12	inactive
O=C(NC(=S)N1CCN(c2ccc([N+](=O)[O-])cc2)CC1)c1ccccc1	inconclusive: 2 µM [inhibitor, partial curve, poor fit]

From PubChem BioAssay AID624418 (National Center for Advancing Translational Sciences (NCATS), 2012)
